These results are taken from a collection of fitness landscapes (doi:10.1126/science.1257360).

The list shows a part of the results.

B1: PhoQ; a variant is named by its letters at X, in order, P23837 (parent)
chain: MKKLLRLFFPLSLRVRFLLATAAVVLVLSLAYGMVALIGYSVSFDKTTFRLLRGESNLFYTLAKWENNKLHVELPENIDKQSPTMTLIYDENGQLLWAQRDVPWLMKMIQPDWLKSNGFHEIEADVNDTSLLLSGDHSIQQQLQEVREDDDDAEMTHSVAVNVYPATSRMPKLTIVVVDTIPVELKSSYMVWSWFIYVLSANLLLVIPLLWVAAWWSLRPIEALAKEVRELEEHNRELLNPATTRELTSLVRNLNRLLKSERERYDKYRTTLTDLTHSLKTPLXXLQXXLRSLRSEKMSVSDAEPVMLEQISRISQQIGYYLHRASMRGGTLLSRELHPVAPLLDNLTSALNKVYQRKGVNISLDISPEISFVGEQNDFVEVMGNVLDNACKYCLEFVEISARQTDEHLYIVVEDDGPGIPLSKREVIFDRGQRVDTLRPGQGVGLAVAREITEQYEGKIVAGESMLGGARMEVIFGRQHSAPKDE

Variants of B1 are the subject of this assay. Briefly: enrichment ratio after two sorts for PhoP signalling (ratio (wild type AVST 3.29)); higher = more functional. The conditions noted are these: with PhoP (E. coli).
Regarding PLYN, the enrichment ratio was at most 0.25.

With FIGD, the enrichment ratio was at most 0.25.

GKLK: the enrichment ratio was at most 0.25.

As to RYDR, the enrichment ratio was at most 0.25.

As to AKLK, the enrichment ratio was at most 0.25.

With TCIR, the enrichment ratio is at most 0.25.

Take ASRV: the enrichment ratio is at most 0.25.

Consider LLML, for which the enrichment ratio was at most 0.25.

For NQCM, the enrichment ratio is at most 0.25.

GRSY: the enrichment ratio was at most 0.25.

Take YTVM: the enrichment ratio was at most 0.25.

Take HLPT: the enrichment ratio is at most 0.25.

On to RNTY, for which the enrichment ratio was at most 0.25.

As for SPIR, the enrichment ratio was at most 0.25.

Consider KQCI, for which the enrichment ratio is at most 0.25.

For the variant DTTA, the enrichment ratio is at most 0.25.

With DVLQ, the enrichment ratio is at most 0.25.

For the variant QQQI, the enrichment ratio was at most 0.25.

Take RPHI: the enrichment ratio was at most 0.25.

For the variant STLP, the enrichment ratio is at most 0.25.

For the variant ERYW, the enrichment ratio was at most 0.25.

As for LTCM, the enrichment ratio is at most 0.25.

Consider VYCE, for which the enrichment ratio was at most 0.25.

As to DGSD, the enrichment ratio was at most 0.25.

In the case of YLAH, the enrichment ratio came to 0.291.

In the case of KQSR, the enrichment ratio was at most 0.25.

Consider VESV, for which the enrichment ratio came to 0.597.

Regarding FLEQ, the enrichment ratio is at most 0.25.

Regarding EQRG, the enrichment ratio is at most 0.25.

Regarding FKED, the enrichment ratio was at most 0.25.

As to TNTA, the enrichment ratio was determined as 10.1.

For DVHR, the enrichment ratio was at most 0.25.

On to MEIA, for which the enrichment ratio is at most 0.25.

Consider VTDP, for which the enrichment ratio is at most 0.25.

Turning to EMSH, the enrichment ratio was at most 0.25.

As to SRWL, the enrichment ratio was at most 0.25.

Regarding GRRH, the enrichment ratio is at most 0.25.

Regarding SRVS, the enrichment ratio was at most 0.25.

HFTQ: the enrichment ratio is at most 0.25.

In the case of YEWT, the enrichment ratio is 0.634.

For the variant YYMV, the enrichment ratio was at most 0.25.

As to DPPT, the enrichment ratio was at most 0.25.

Consider MYDW, for which the enrichment ratio was at most 0.25.

On to FFAM, for which the enrichment ratio was at most 0.25.

As to LWSE, the enrichment ratio is at most 0.25.

Turning to NVNR, the enrichment ratio is at most 0.25.

With CRYF, the enrichment ratio was at most 0.25.

For the variant MCCI, the enrichment ratio was at most 0.25.

AHFD: the enrichment ratio was at most 0.25.

As for LVRR, the enrichment ratio is at most 0.25.

Regarding QFPW, the enrichment ratio is at most 0.25.

For the variant QYRS, the enrichment ratio was at most 0.25.

Consider KTEC, for which the enrichment ratio was at most 0.25.

Regarding FCQS, the enrichment ratio was at most 0.25.

For YFNS, the enrichment ratio was at most 0.25.

With LGWH, the enrichment ratio was at most 0.25.

Take AMYV: the enrichment ratio is at most 0.25.

Regarding PKWY, the enrichment ratio is at most 0.25.

For the variant MGVK, the enrichment ratio is at most 0.25.

Regarding WVQF, the enrichment ratio was at most 0.25.

Consider HPVE, for which the enrichment ratio was at most 0.25.

RGYD: the enrichment ratio was at most 0.25.

Consider PDWI, for which the enrichment ratio was at most 0.25.

Turning to PNRK, the enrichment ratio is at most 0.25.

Regarding ECVP, the enrichment ratio is at most 0.25.

As to AEQT, the enrichment ratio was 10.8.

For LPYH, the enrichment ratio is at most 0.25.

Turning to VIYG, the enrichment ratio was at most 0.25.

Turning to DHWE, the enrichment ratio is at most 0.25.

As for GTRN, the enrichment ratio was at most 0.25.

On to EDTD, for which the enrichment ratio is at most 0.25.

Take IFRI: the enrichment ratio is at most 0.25.

In the case of RKTM, the enrichment ratio is at most 0.25.

Consider VDPI, for which the enrichment ratio was at most 0.25.

As for FSNF, the enrichment ratio is at most 0.25.

VTRI: the enrichment ratio was at most 0.25.

Take GPDD: the enrichment ratio was at most 0.25.

For the variant KAMI, the enrichment ratio is at most 0.25.

Regarding QVNF, the enrichment ratio turned out to be 1.28.

Turning to IQDA, the enrichment ratio is at most 0.25.

For the variant VPLA, the enrichment ratio was at most 0.25.

As for RDMP, the enrichment ratio was at most 0.25.

Regarding SYLN, the enrichment ratio is at most 0.25.

Turning to GMPI, the enrichment ratio was at most 0.25.

Turning to TNTC, the enrichment ratio was 11.6.

Regarding IRRT, the enrichment ratio is at most 0.25.

SSHL: the enrichment ratio is 3.31.

For FRHR, the enrichment ratio is at most 0.25.

Take ALHQ: the enrichment ratio was at most 0.25.

Take WAPH: the enrichment ratio was at most 0.25.

As for ESRP, the enrichment ratio was at most 0.25.

With SKDC, the enrichment ratio is at most 0.25.

KLLV: the enrichment ratio is at most 0.25.

As for QEHS, the enrichment ratio is 8.42.

Turning to DYGA, the enrichment ratio was at most 0.25.

In the case of LHTC, the enrichment ratio is at most 0.25.

With FTPN, the enrichment ratio is at most 0.25.

In the case of LVFY, the enrichment ratio is at most 0.25.

As to NLWM, the enrichment ratio was at most 0.25.

With EFTN, the enrichment ratio was at most 0.25.

Regarding GKNL, the enrichment ratio is at most 0.25.

Regarding DNHT, the enrichment ratio is at most 0.25.

On to HRVK, for which the enrichment ratio is at most 0.25.

In the case of PPTS, the enrichment ratio was at most 0.25.

With KYRW, the enrichment ratio was at most 0.25.

As for AFRA, the enrichment ratio is at most 0.25.

In the case of HDGC, the enrichment ratio is at most 0.25.

As for NRTF, the enrichment ratio is at most 0.25.

Take DVDV: the enrichment ratio was at most 0.25.

As to PRPY, the enrichment ratio is at most 0.25.

On to MIYV, for which the enrichment ratio stood at 7.62.

As for IPCG, the enrichment ratio was at most 0.25.

With KFHS, the enrichment ratio was at most 0.25.

As to SVQE, the enrichment ratio was at most 0.25.

With AKIK, the enrichment ratio is at most 0.25.

For the variant NWSA, the enrichment ratio was at most 0.25.

With FWPD, the enrichment ratio was at most 0.25.

Turning to HRHW, the enrichment ratio is at most 0.25.

Turning to NGGG, the enrichment ratio is at most 0.25.

Consider FNIG, for which the enrichment ratio was at most 0.25.

For the variant MIGA, the enrichment ratio is at most 0.25.

As to AQPF, the enrichment ratio is at most 0.25.

QKPM: the enrichment ratio is at most 0.25.

With LAID, the enrichment ratio was at most 0.25.

Regarding LHFC, the enrichment ratio was at most 0.25.

Regarding FPFF, the enrichment ratio was at most 0.25.

Turning to PSQL, the enrichment ratio is at most 0.25.

WRLN: the enrichment ratio is at most 0.25.

Consider PLMQ, for which the enrichment ratio is at most 0.25.

Consider YYHN, for which the enrichment ratio is at most 0.25.

As to SACW, the enrichment ratio came to 1.34.

On to IVPW, for which the enrichment ratio was at most 0.25.

Consider KTTS, for which the enrichment ratio is at most 0.25.

As for VLFP, the enrichment ratio is at most 0.25.

As to KICT, the enrichment ratio is at most 0.25.

For the variant FNVG, the enrichment ratio is at most 0.25.

For ERQF, the enrichment ratio is at most 0.25.

YIWV: the enrichment ratio was at most 0.25.

For the variant EMRR, the enrichment ratio is at most 0.25.

Regarding RWAL, the enrichment ratio is at most 0.25.

Consider FNGP, for which the enrichment ratio is at most 0.25.

On to MVPE, for which the enrichment ratio is at most 0.25.

In the case of ALPK, the enrichment ratio was at most 0.25.

SLKT: the enrichment ratio is at most 0.25.

For the variant PASR, the enrichment ratio was at most 0.25.

Turning to AINT, the enrichment ratio is at most 0.25.

With KQIL, the enrichment ratio is at most 0.25.

With SMSQ, the enrichment ratio was determined as 11.1.

In the case of RQSV, the enrichment ratio was at most 0.25.

On to SKVQ, for which the enrichment ratio was determined as 5.75.

As for VWCH, the enrichment ratio is at most 0.25.

Turning to YLRF, the enrichment ratio was at most 0.25.

Consider YRYS, for which the enrichment ratio was at most 0.25.

On to MAIV, for which the enrichment ratio was at most 0.25.

Turning to NFHI, the enrichment ratio is at most 0.25.

For VHMQ, the enrichment ratio is at most 0.25.

Turning to FGDT, the enrichment ratio was at most 0.25.

As to QSLI, the enrichment ratio was at most 0.25.

TITN: the enrichment ratio came to 5.09.

Regarding ELSI, the enrichment ratio was at most 0.25.

As for NVFW, the enrichment ratio was at most 0.25.

For the variant RNMF, the enrichment ratio is at most 0.25.

Take EMTR: the enrichment ratio is at most 0.25.

As for FKKD, the enrichment ratio is at most 0.25.

For DCEI, the enrichment ratio was at most 0.25.

For WYRV, the enrichment ratio was at most 0.25.

As for KCFH, the enrichment ratio is at most 0.25.

For WQPG, the enrichment ratio is at most 0.25.

Regarding STMS, the enrichment ratio came out at 15.6.

In the case of TDTD, the enrichment ratio was at most 0.25.

LTNK: the enrichment ratio was at most 0.25.

Turning to DYCR, the enrichment ratio is at most 0.25.

On to EQDR, for which the enrichment ratio was at most 0.25.

As to IRMN, the enrichment ratio was at most 0.25.

In the case of SWAH, the enrichment ratio was at most 0.25.

As for IIFH, the enrichment ratio is at most 0.25.

For SWMT, the enrichment ratio was at most 0.25.

Consider KELL, for which the enrichment ratio is at most 0.25.

Consider RSKL, for which the enrichment ratio was at most 0.25.

For the variant SMYA, the enrichment ratio was at most 0.25.

For APKL, the enrichment ratio was at most 0.25.

In the case of IFAQ, the enrichment ratio is at most 0.25.

On to MRAY, for which the enrichment ratio was at most 0.25.

With LYCR, the enrichment ratio is at most 0.25.

Take AHHD: the enrichment ratio was at most 0.25.

In the case of QDDQ, the enrichment ratio was at most 0.25.

Take HLYM: the enrichment ratio is at most 0.25.

As to VTGV, the enrichment ratio was at most 0.25.

Regarding YGRM, the enrichment ratio is at most 0.25.

In the case of ENIP, the enrichment ratio was at most 0.25.

Take QLEP: the enrichment ratio was at most 0.25.

As to ILKK, the enrichment ratio is at most 0.25.

For FHDN, the enrichment ratio was at most 0.25.

For YLAA, the enrichment ratio was at most 0.25.

Consider FYQR, for which the enrichment ratio was at most 0.25.
